Data from PubChem BioAssay AID588579 (National Center for Advancing Translational Sciences (NCATS), 2011).
Values joined by “and” are separate entries in the source; they are usually repeats but may differ in a detail not shown here. Equal entries are not always repeated. Out of some 400,000 compounds screened, about 2,200 (0.55%) were called active. Inconclusive means that the source gave no clear call. Such entries were picked first, then a sample of the others. The call rests on the fitted dose curve; in most records, active means well fitted inhibition curve with a large enough effect; inconclusive means small, poorly fitted or top-dose-only effect, or another doubt; inactive means no such curve, though single readings can be large or run the other way. Potencies beside an inconclusive call are fits to weak or partial responses and may not hold up.

Biological target: DNA polymerase kappa (Homo sapiens) (UniProt Q9UBT6)
Sequence of UniProt Q9UBT6 (Q9UBT6 whole entry, looked up): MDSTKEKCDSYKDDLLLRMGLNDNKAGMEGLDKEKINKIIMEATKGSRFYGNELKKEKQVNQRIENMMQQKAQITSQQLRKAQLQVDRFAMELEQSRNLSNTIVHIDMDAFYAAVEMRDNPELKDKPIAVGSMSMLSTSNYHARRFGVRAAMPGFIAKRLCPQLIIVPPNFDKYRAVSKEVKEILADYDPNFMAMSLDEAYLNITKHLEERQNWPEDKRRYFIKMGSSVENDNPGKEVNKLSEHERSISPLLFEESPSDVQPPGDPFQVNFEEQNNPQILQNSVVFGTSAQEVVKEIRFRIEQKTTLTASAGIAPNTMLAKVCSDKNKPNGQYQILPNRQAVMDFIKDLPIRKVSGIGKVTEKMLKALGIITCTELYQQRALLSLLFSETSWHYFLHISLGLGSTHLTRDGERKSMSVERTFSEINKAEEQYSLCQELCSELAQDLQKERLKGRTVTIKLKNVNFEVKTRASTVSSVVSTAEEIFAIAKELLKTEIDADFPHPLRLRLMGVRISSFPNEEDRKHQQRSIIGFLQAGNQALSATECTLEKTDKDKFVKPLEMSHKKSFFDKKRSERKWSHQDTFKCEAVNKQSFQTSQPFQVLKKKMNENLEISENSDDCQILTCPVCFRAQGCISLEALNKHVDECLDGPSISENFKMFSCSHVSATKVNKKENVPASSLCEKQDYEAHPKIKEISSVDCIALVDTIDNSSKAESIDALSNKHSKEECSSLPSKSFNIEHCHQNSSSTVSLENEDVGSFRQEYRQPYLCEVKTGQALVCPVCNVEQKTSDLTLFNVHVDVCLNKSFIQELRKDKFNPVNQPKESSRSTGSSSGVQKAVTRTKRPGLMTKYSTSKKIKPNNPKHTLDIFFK
Experiment: qHTS for Inhibitors of Polymerase Kappa
Conditions: purified Pol kappa, fluorescent DNA synthesis assay, 10 min; series mostly up to 107 µM
In short: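 10 nM Pol kappa preincubated 15 min at room temperature with compounds, then reaction started with substrate at 50 nM final. Fluorescence read kinetically at 0 and 10 min; buffer-only wells served as negative control.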
Potency means the concentration at half of the fitted maximal effect; tags describe the fitted curve by direction and shape.

SMILES	Potency
CCN(CC)CCOc1ccc2c(c1)C(=NNC(=O)c1ccccn1)c1cc(OCCN(CC)CC)ccc1-2	active: 10 µM
CCOc1ccc2nc(NC(=O)CN3CCC(n4nnc5cc(F)ccc54)CC3)sc2c1	inactive
Cc1cnc(CNc2ncnc3ccc(-c4ccc(N(C)C)cc4)cc23)cn1	inconclusive: 22.4 µM [inhibitor, single point]
COc1ccc(-c2noc(-c3ccc(N4CCC(C)CC4)c([N+](=O)[O-])c3)n2)cc1OC	inconclusive: 100 µM [inhibitor, single point]
O=C1NC(=S)SC1=C1CCCC1	active: 14.1 µM
O=C1c2ccccc2C(=O)c2c(O)c(O)cc(O)c21	active: 7.08 µM and active: 3.98 µM and active: 50.1 µM
C=C(CCC(=O)c1ccccc1)C(=O)c1ccccc1	inactive
COc1ccc(/C=C/C(=O)Nc2ccc3nc(N4CCCCC4)cc(C)c3c2)cc1OC	inconclusive: 70.8 µM [inhibitor, partial curve, poor fit]
O=C(NC1CC1)c1cc(-c2ccco2)nc2ccccc12	active: 20 µM
Cc1cc(NC(=O)CCCn2cc([N+](=O)[O-])cn2)n(Cc2ccc(F)cc2)n1	inconclusive: 89.1 µM [inhibitor, single point]
O=C(CNc1ccc2ccccc2c1)N/N=C/c1ccc(C(=O)O)cc1	inconclusive: 56.2 µM [inhibitor, partial curve, poor fit]
CCOC(=O)/C=C1\SCC(=O)N1CC(=O)c1ccc[nH]1	inconclusive: 89.1 µM [inhibitor, single point]
COc1cc2ccc(=O)oc2c(O)c1O	active: 7.94 µM and active: 50.1 µM
COc1ccc(-n2c(C)cc(/C=C3\C(=N)N4N=C(CC(=O)N5CCOCC5)SC4=NC3=O)c2C)cc1	inconclusive: 89.1 µM [inhibitor, single point]
O=C1c2ccccc2C(=O)N1/N=C/c1ccc(O)c(O)c1O	active: 1.41 µM
COc1cc2c(NC3CCN(C)CC3)nc(N3CCCN(C)CC3)nc2cc1OCCCN1CCCC1	inconclusive: 79.4 µM [inhibitor, partial curve, poor fit]
CCCSCCCNC(=O)c1cc2n(n1)CCCN(Cc1ccc(C)cc1)C2=O	inactive
COC(=O)C1CCN(C(=O)COC(=O)c2cc(-c3ccccc3)nc3ccc(OC)cc23)CC1	inactive
COc1cc2c(C(=O)c3ccccc3)c3c4c(cc(OC)c(OC)c4c2cc1OC)CCN3C	inconclusive: 5.01 µM [inhibitor, partial curve, poor fit]
CN(C)c1ccc(/C=C/c2ncnc3ccccc23)cc1	inconclusive: 56.2 µM [inhibitor, partial curve, poor fit]
COc1cc(C(CCN2CCOCC2)c2c(OC)cc(OC)c3c(-c4ccccc4)cc(=O)oc23)cc(OC)c1OC (centres undefined)	inconclusive: 39.8 µM [inhibitor, partial curve, poor fit]
O=C(Nc1nc2nccc(-c3ccccc3)n2n1)c1ccccc1	inactive
CC1(C)CC(=O)C2=C(C1)Nc1ccccc1S2	inactive

SMILES	Potency
O=C(COc1ccc([N+](=O)[O-])cc1)Nc1nnc(-c2cccnc2)s1	inconclusive: 79.4 µM [inhibitor, partial curve, poor fit]
CCOC(=O)C(=O)NCc1ccc(/C=C2/N=C(C)C(C(=O)OCC)=C2O)o1	inconclusive: 89.1 µM [inhibitor, single point]
Cc1ccccc1-c1cncnc1N(C)Cc1ccco1	inconclusive: 31.6 µM [inhibitor, single point]
Cc1ccc(-n2ncc3c2CC(C)(C)CC3NC(=O)CCN2CCCO2)cc1 (centres undefined)	inactive
CCC(C)Cn1c(O)cc2nn(-c3nc4ccccc4s3)c(=O)c-2c1C (centres undefined)	active: 25.1 µM
CN(C)c1ccc(-c2cncnc2NCc2ccccc2)cc1	inactive
O=S(=O)(O)c1cc(O)c2cc(Nc3ccccc3)ccc2c1	active: 31.6 µM
C[n+]1ccc(/C=C/c2ccc(Br)cc2)cc1	active: 89.1 µM
C=CC1=C(C)C2=Cc3c(C=C)c(C)c4[n]3[Sn+2][n]3c(c(C)c(CCC(=O)O)c3=CC3=NC(=C4)C(C)=C3CCC(=O)O)=CC1=N2	active: 12.6 µM
O=C(O)[C@@H]1[C@H]2C[C@H]3c4[nH]c5ccccc5c4CCN3C[C@@H]2CC[C@@H]1O	inconclusive: 89.1 µM [inhibitor, single point]
O=C(O)c1ccc(COc2ccccc2/C=C2/NC(=O)N(c3cccc(Cl)c3)C2=O)cc1	active: 39.8 µM
CCCCn1c(NC(=O)c2ccccc2)c(C#N)c2nc3ccccc3nc21	inconclusive: 89.1 µM [inhibitor, single point]
O=C(c1cc2ncc(Br)cn2n1)N1CCOCC1	inactive
COc1ccc(NC(=O)C2C3C=CC(C3)C2C(=O)NCc2ccco2)cc1 (centres undefined)	inconclusive: 89.1 µM [inhibitor, single point]
Cc1ccc(S(=O)(=O)Cc2ccc(C(=O)NCc3ccc4c(c3)OCO4)o2)cc1	inconclusive: 89.1 µM [inhibitor, partial curve, poor fit]
Cc1cc(-c2ccccc2)nc(N/N=C/c2ccc(O)cc2)n1	inactive
N#C/C(=C/c1ccc(-c2ccc([N+](=O)[O-])cc2)o1)C(=O)Nc1nc(-c2cccs2)cs1	inconclusive: 89.1 µM [inhibitor, single point]
O=C(COC(=O)c1cnc(Cl)c(Cl)c1)NCc1ccco1	inconclusive: 100 µM [inhibitor, single point]
CCN(c1ccccc1)S(=O)(=O)c1ccc2[nH]cc(C(=O)N3CCOCC3)c(=O)c2c1	inactive
CCCc1cc(=O)[nH]c(SCC(=O)Nc2sccc2C#N)n1	inconclusive: 100 µM [inhibitor, single point]
NC(=O)CSC1=N/C(=C\c2ccco2)C(=O)N1c1ccc(OC(F)F)cc1	inconclusive: 100 µM [inhibitor, single point]
CCc1cccc(C)c1NC(=O)Cn1c(=O)n(-c2cccc(C)c2)c(=O)c2c1c1cc(C)ccc1n2C	inconclusive: 39.8 µM [inhibitor, single point]
CC(C)(C)C(=O)Nc1ccc(Sc2ccc([N+](=O)[O-])cc2)cc1	inactive

SMILES	Potency
O=C(Nc1cccc(/C=C/c2nc3ccccc3c(=O)[nH]2)c1)c1ccccc1Cl	inactive
COc1ccc(/C=N/NC(=O)c2cccc(S(=O)(=O)N3CCCC3)c2)cc1O	inactive
CC(c1nnc(SCC(=O)NC(=O)NCc2ccco2)n1-c1ccc(Cl)cc1)N(C)C (centres undefined)	inconclusive: 39.8 µM [inhibitor, single point]
COc1cccc(-c2nc(SCc3ccc(C)cc3)n3[nH]c(=O)cc3n2)c1	inactive
CC(=O)CC(c1ccccc1)C1C(=O)Oc2ccccc2C1=O (centres undefined)	inactive
S=c1[nH]nc(-c2n[nH]c3c2CCC3)n1/N=C/C=C/c1ccco1	active: 79.4 µM
CC(=O)C1=C(c2ccc(Cl)c(Cl)c2)N(C(C)=O)n2cnnc2S1	inactive
N#Cc1ccc(NC(=O)CSc2nc3[nH]c(=O)cc(O)c3s2)cc1	inconclusive: 89.1 µM [inhibitor, partial curve, poor fit]
CC(Nc1ccc(-c2nc(-c3ccco3)no2)cc1[N+](=O)[O-])c1ccccc1 (centres undefined)	inconclusive: 89.1 µM [inhibitor, single point]
Cc1nc(N)sc1-c1csc(Nc2cccc(C(=O)O)c2)n1	active: 25.1 µM
Cc1nc(Sc2ccc(Br)cc2)c(C#N)c(C)c1[N+](=O)[O-]	inactive
CCn1c2ccccc2c2cc(NC(=O)CSc3nnc(-c4cccc(OC)c4)n3N)ccc21	inactive
CC(=O)N1CCN(S(=O)(=O)c2cccc(C(=O)Nc3ccc(F)c(F)c3)c2)CC1	inconclusive: 89.1 µM [inhibitor, single point]
C=CC(=O)Nc1ccc(Nc2ccnc(Nc3ccc(N4CCN(C)CC4)cc3)n2)cc1	inconclusive: 89.1 µM [inhibitor, partial curve, poor fit]
Cc1ccc(NC(=O)CN(C)C(=O)Cn2cc(C(F)(F)F)ccc2=O)cc1	inactive
CN(C)C(=O)c1ccc(-c2ccc3ncnc(NCc4cccs4)c3c2)cc1	inconclusive: 31.6 µM [inhibitor, single point]
CCOc1ccc(NC(=O)Cn2nnc(C(=O)NCCc3ccccc3)c2N)cc1	inconclusive: 100 µM [inhibitor, single point]
COc1ccc(-c2cc(OC(=O)c3cccc(Cl)c3)c3c(C)oc(C)c3c(=O)c2)cc1	inconclusive: 89.1 µM [inhibitor, partial curve, poor fit]
CCOC(=O)N1CCC(N2C(=O)c3ccccc3C2Nc2cc(C(=O)OC)cc(C(=O)OC)c2)CC1 (centres undefined)	inconclusive: 56.2 µM [inhibitor, partial curve, poor fit]
O=C(CSc1ccc(-c2ccccn2)nn1)c1ccc([N+](=O)[O-])cc1	inconclusive: 89.1 µM [inhibitor, single point]
COc1cc(/C=C2/SC(N)=NC2=O)ccc1Oc1ccc([N+](=O)[O-])cc1[N+](=O)[O-]	inactive
COc1ccc(Cl)cc1NC(=O)CN(C)C(=O)c1ccc(N2CCCCCC2)c([N+](=O)[O-])c1	inconclusive: 89.1 µM [inhibitor, single point]
CCCn1c(SCC(=O)NNC(=O)c2ccc(OC)cc2)nnc1C(C)C	inactive
